Variants at the floor of the assay are shown more often than the library holds them.

B1: TPR 5TU (parent)
chain: GGAUCUUCUCGAUCUAACAAAAAAGACAAAUCUGCCACAAAGCUUGAGAGCAUCUUCGGAUGCAGAGGCGGCAGCCUUCGGUGGCGCGAUAGCGCCAACGUUCUCAACUAUGACACGCAAAACGCGUGCUCCGUUGAAUGGAGUUUAUCAUG

Variants of B1 are the subject of the series. Description: polymerase ribozyme fitness, log enrichment relative to wild type (log ratio); higher = more active; in vitro selection for triplet polymerase activity. The method in brief:
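Mutant libraries for each subunit of a heterodimeric triplet polymerase ribozyme were made by PCR and then transcribed. Each library underwent one round of in vitro selection in triplicate: annealing with a biotinylated primer, the partner subunit and triplets, frozen incubation at −7 °C, gel excision of extended constructs, streptavidin-bead capture and RT-PCR. Input and output libraries were Illumina-sequenced, and only genotypes with ≥10 input reads and ≥1 read per output were kept. Fitness is the logarithm, base 2, of genotype enrichment over wild-type enrichment, computed from inverse-variance-weighted replicate averages.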
On to A122G G133U, for which the “polymerase ribozyme fitness (log ratio)” value is -3.59.
The result for G140U A147U reads -2.9; that for C116U G141A, -1.01.
The figure for U135G A137U is -4.04; for C116G U146G it is -0.306; for U146A C149A it is ≤ -4.2.
The result for G126A G143A reads -1.92.
Take A115U U146G: the “polymerase ribozyme fitness (log ratio)” value is -2.23.
As to A138U G140A, the “polymerase ribozyme fitness (log ratio)” value is ≤ -4.2.
Turning to G128A G141A G143U U144G U151A, the “polymerase ribozyme fitness (log ratio)” value is ≤ -4.2.
As to G141U A142C, the “polymerase ribozyme fitness (log ratio)” value is -3.58.
The figure for C114U C123U is -2.17.
With A121U C132U U146A, the “polymerase ribozyme fitness (log ratio)” value was -0.968.
For U146G A150G G152A, the “polymerase ribozyme fitness (log ratio)” value was -1.84.
The result for C131A reads -1.77.
Take C131G: the “polymerase ribozyme fitness (log ratio)” value was -2.79.
The figure for C131U is 1.18; for A137U G143U it is -3.39; for C114U U135C it is -2.95.
The figure for A119U C129U is 0.265; for C116G A120U it is 0.554.
For the variant C114U G136C, the “polymerase ribozyme fitness (log ratio)” value was -3.39.
As for C132U C149G, the “polymerase ribozyme fitness (log ratio)” value was -3.84.
The figure for C131G A137U is -4.16; for G117A C123A it is 0.34.
The figure for U145C U146G is 0.121; for A120G G141C A147U it is -1.01.
The result for C118G A122C reads -1.49; that for C118G C129U, -1.77.
For the variant C132U A150G, the “polymerase ribozyme fitness (log ratio)” value was -2.47.
Take A138C A142C G143A: the “polymerase ribozyme fitness (log ratio)” value was ≤ -4.2.
The figure for A137U G141A is -3.24; for C116U A119U U135C it is -2.59.
Consider C116U C125U U146C, for which the “polymerase ribozyme fitness (log ratio)” value is -0.74.
The result for U135G G141U U146G reads ≤ -4.2.
The result for A119U A137U reads -4.12; that for G128A G133A U134C A150G, -3.52.
In the case of C132A, the “polymerase ribozyme fitness (log ratio)” value was -2.06.
Take C132G: the “polymerase ribozyme fitness (log ratio)” value is -3.15.
As to C132U, the “polymerase ribozyme fitness (log ratio)” value is -0.687.
Take U130C U144C A147C: the “polymerase ribozyme fitness (log ratio)” value was -1.95.
The result for A113C U134C A137C G140A U148G reads ≤ -4.2.
As for U135A G136C, the “polymerase ribozyme fitness (log ratio)” value is -4.14.
The figure for G117U C123G A138U is ≤ -4.2; for U139G A150C it is -3.84.
The figure for C125U G126A is -3.14; for U148G U151A it is -3.95.
The figure for U146C is 0.00807; for U146A it is -0.305.
As for U146G, the “polymerase ribozyme fitness (log ratio)” value was -0.513.
The result for C116U G124A A142G reads -2.45; that for A115U U148G, -4.15; that for C114U A137U, -4.05.
For the variant G124A G140C, the “polymerase ribozyme fitness (log ratio)” value was -3.89.
The figure for C116A U151C is -4.09.
The figure for U135A A147U is -0.75; for A137G it is -1.15; for A137C it is -3.09.
The result for A137U reads -3.39; that for A115U C118U U146C A150G, ≤ -4.2.
Regarding A138C U139A, the “polymerase ribozyme fitness (log ratio)” value is -3.78.
The figure for C123A G140A is -3.65; for G141U G143C it is ≤ -4.2; for A121G U134G it is -2.56.
The result for A122G G124A A137U reads ≤ -4.2.
The figure for A137G U145G is -1.02; for A113C G124U A150U it is ≤ -4.2.
Regarding C118U A142C, the “polymerase ribozyme fitness (log ratio)” value is -0.682.
The figure for C125U U134G A142C is -3.76.
Take C114U C118G: the “polymerase ribozyme fitness (log ratio)” value is -2.88.
On to G124C A142U, for which the “polymerase ribozyme fitness (log ratio)” value is -0.985.
The result for G124C G140C reads -4.05.
The figure for C114U is -1.75; for C114G it is -2.54; for C114A it is -2.72.
The figure for A122G G124A U127A is -3.53; for A115G U135A it is -2.48; for A121C G128C it is -2.44.
On to G128U G133C U146C A150G, for which the “polymerase ribozyme fitness (log ratio)” value is ≤ -4.2.
The result for G126C A150G reads -2.81; that for A115U, -1.48.
On to A115C, for which the “polymerase ribozyme fitness (log ratio)” value is -0.641.
The result for A115G reads -1; that for G141C C149A, ≤ -4.2; that for C116U A121U G124U, -2.02.
The figure for G117A U144C is -2.9.
The result for G126A C129G reads -3.97.

The values are drawn from the RNAGym collection of RNA variant scans (doi:10.1073/pnas.2313332121).
